# Experimental data reported in the supplement of paper PMC8728848.
# Some of the results follow.
# Tests used:
# Assay in all cases: glycan array binding signal (z-score within array); higher = stronger binding
# Conditions in all cases: glycan notation: IUPAC condensed, linker removed
# [1] = molecular target: Neu5Ac(a2-6)Gal(b1-4)GlcNAc(b1-2)Man(a1-3)[Man(a1-6)]Man(b1-4)GlcNAc(b1-4)GlcNAc
# Summary of the method: (§1)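 The Consortium for Functional Glycomics database supplied 3228 glycan arrays, of which those lacking an available protein sequence were dropped. The binding signal, a within-array Z-score, was averaged across arrays of the same protein sequence and across linkers. Negative scores can be read as non-binding.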
# [2] = molecular target: Neu5Ac(a2-6)Gal(b1-4)GlcNAc(b1-2)Man(a1-3)[Neu5Ac(a2-3)Gal(b1-4)GlcNAc(b1-2)Man(a1-6)]Man(b1-4)GlcNAc(b1-4)GlcNAc
# Summary of the method: as §1
# [3] = molecular target: Neu5Ac(a2-6)Gal(b1-4)GlcNAc(b1-2)Man(a1-3)[Neu5Ac(a2-6)Gal(b1-4)GlcNAc(b1-2)Man(a1-6)]Man(b1-4)GlcNAc(b1-4)GlcNAc
# Summary of the method: as §1
# [4] = molecular target: Neu5Ac(a2-6)Gal(b1-4)GlcNAc(b1-2)Man(a1-3)[Neu5Ac(a2-6)Gal(b1-4)GlcNAc(b1-2)Man(a1-6)]Man(b1-4)GlcNAc(b1-4)[Fuc(a1-6)]GlcNAc
# Summary of the method: as §1
# [5] = molecular target: Neu5Ac(a2-6)Gal(b1-4)GlcNAc(b1-2)Man(a1-6)Man(b1-4)GlcNAc(b1-4)GlcNAc
# Summary of the method: as §1
# [6] = molecular target: Neu5Ac(a2-6)Gal(b1-4)GlcNAc(b1-2)Man(a1-6)[Gal(b1-4)GlcNAc(b1-2)Man(a1-3)]Man(b1-4)GlcNAc(b1-4)GlcNAc
# Summary of the method: as §1
# [7] = molecular target: Neu5Ac(a2-6)Gal(b1-4)GlcNAc(b1-2)Man(a1-6)[GlcNAc(b1-2)Man(a1-3)]Man(b1-4)GlcNAc(b1-4)GlcNAc
# Summary of the method: as §1
# [8] = molecular target: Neu5Ac(a2-6)Gal(b1-4)GlcNAc(b1-2)Man(a1-6)[Man(a1-3)]Man(b1-4)GlcNAc(b1-4)GlcNAc
# Summary of the method: as §1
# [9] = molecular target: Neu5Ac(a2-6)Gal(b1-4)GlcNAc(b1-2)[Neu5Ac(a2-6)Gal(b1-4)GlcNAc(b1-4)]Man(a1-3)[GlcNAc(b1-4)][Neu5Ac(a2-6)Gal(b1-4)GlcNAc(b1-2)[Neu5Ac(a2-6)Gal(b1-4)GlcNAc(b1-6)]Man(a1-6)]Man(b1-4)GlcNAc(b1-4)GlcNAc
# Summary of the method: as §1
# [10] = molecular target: Neu5Ac(a2-6)Gal(b1-4)GlcNAc(b1-2)[Neu5Ac(a2-6)Gal(b1-4)GlcNAc(b1-4)]Man(a1-3)[GlcNAc(b1-4)][Neu5Ac(a2-6)Gal(b1-4)GlcNAc(b1-4)Man(a1-6)]Man(b1-4)GlcNAc(b1-4)GlcNAc
# Summary of the method: as §1
# [11] = molecular target: Neu5Ac(a2-6)Gal(b1-4)GlcNAc(b1-2)[Neu5Ac(a2-6)Gal(b1-4)GlcNAc(b1-6)]Man(a1-6)[Neu5Ac(a2-6)Gal(b1-4)GlcNAc(b1-2)Man(a1-3)][GlcNAc(b1-4)]Man(b1-4)GlcNAc(b1-4)GlcNAc
# Summary of the method: as §1
# [12] = molecular target: Neu5Ac(a2-6)Gal(b1-4)GlcNAc(b1-3)Gal(b1-3)GlcNAc
# Summary of the method: as §1
# [13] = molecular target: Neu5Ac(a2-6)Gal(b1-4)GlcNAc(b1-3)Gal(b1-4)GlcNAc
# Summary of the method: as §1
# [14] = molecular target: Neu5Ac(a2-6)Gal(b1-4)GlcNAc(b1-3)Gal(b1-4)GlcNAc(b1-2)Man(a1-3)[Neu5Ac(a2-6)Gal(b1-4)GlcNAc(b1-3)Gal(b1-4)GlcNAc(b1-2)Man(a1-6)]GalNAc
# Summary of the method: as §1
# [15] = molecular target: Neu5Ac(a2-6)Gal(b1-4)GlcNAc(b1-3)Gal(b1-4)GlcNAc(b1-3)Gal(b1-4)GlcNAc
# Summary of the method: as §1
# [16] = molecular target: Neu5Ac(a2-6)Gal(b1-4)GlcNAc(b1-3)Gal(b1-4)GlcNAc(b1-3)Gal(b1-4)GlcNAc(b1-2)Man(a1-3)[Neu5Ac(a2-6)Gal(b1-4)GlcNAc(b1-3)Gal(b1-4)GlcNAc(b1-3)Gal(b1-4)GlcNAc(b1-2)Man(a1-6)]GalNAc
# Summary of the method: as §1
# [17] = molecular target: Neu5Ac(a2-6)Gal(b1-4)GlcNAc(b1-3)Gal(b1-4)GlcNAc(b1-3)GalNAc
# Summary of the method: as §1
# [18] = molecular target: Neu5Ac(a2-6)Gal(b1-4)GlcNAc(b1-3)Gal(b1-4)GlcNAc(b1-3)[Neu5Ac(a2-6)Gal(b1-4)GlcNAc(b1-3)Gal(b1-4)GlcNAc(b1-6)]GalNAc
# Summary of the method: as §1
# [19] = molecular target: Neu5Ac(a2-6)Gal(b1-4)GlcNAc(b1-3)Gal(b1-4)GlcNAc(b1-6)[Gal(b1-3)]GalNAc
# Summary of the method: as §1
# [20] = molecular target: Neu5Ac(a2-6)Gal(b1-4)GlcNAc(b1-3)Gal(b1-4)[Fuc(a1-3)]GlcNAc(b1-3)Gal(b1-4)[Fuc(a1-3)]GlcNAc
# Summary of the method: as §1
# [21] = molecular target: Neu5Ac(a2-6)Gal(b1-4)GlcNAc(b1-3)GalNAc
# Summary of the method: as §1
# [22] = molecular target: Neu5Ac(a2-6)Gal(b1-4)GlcNAc(b1-3)[Neu5Ac(a2-6)Gal(b1-4)GlcNAc(b1-6)]GalNAc
# Summary of the method: as §1
# [23] = molecular target: Neu5Ac(a2-6)Gal(b1-4)GlcNAc(b1-6)GalNAc
# Summary of the method: as §1
# [24] = molecular target: Neu5Ac(a2-6)Gal(b1-4)GlcNAc(b1-6)[Gal(b1-3)GlcNAc(b1-3)]Gal(b1-4)Glc
# Summary of the method: as §1
# [25] = molecular target: Neu5Ac(a2-6)Gal(b1-4)GlcNAc(b1-6)[Gal(b1-3)]GalNAc
# Summary of the method: as §1
# [26] = molecular target: Neu5Ac(a2-6)Gal(b1-4)GlcNAc6S
# Summary of the method: as §1
# Neu5Ac(a2-6)GalNAc = molecular target: Neu5Ac(a2-6)GalNAc
# Summary of the method: as §1
# [27] = molecular target: Neu5Ac(a2-6)GalNAc(b1-4)GlcNAc
# Summary of the method: as §1
# [28] = molecular target: Neu5Ac(a2-6)GalNAc(b1-4)GlcNAc6S
# Summary of the method: as §1
# [29] = molecular target: Neu5Ac(a2-6)GlcNAc(b1-4)GlcNAc
# Summary of the method: as §1
# [30] = molecular target: Neu5Ac(a2-6)GlcNAc(b1-4)GlcNAc(b1-4)GlcNAc
# Summary of the method: as §1
binder,measurement,setting,value
"Siglec-9 (Homo sapiens), Q9Y336 (protein) MLLLLLPLLWGRERAEGQTSKLLTMQSSVTVQEGLCVHVPCSFSYPSHGWIYPGPVVHGYWFREGANTDQDAPVATNNPARAVWEETRDRFHLLGDPHTKNCTLSIRDARRSDAGRYFFRMEKGSIKWNYKHHRLSVNVTALTHRPNILIPGTLESGCPQNLTCSVPWACEQGTPPMISWIGTSVSPLDPSTTRSSVLTLIPQPQDHGTSLTCQVTFPGASVTTNKTVHLNVSYPPQNLTMTVFQGDGTVSTVLGNGSSLSLPEGQSLRLVCAVDAVDSNPPARLSLSWRGLTLCPSQPSNPGVLELPWVHLRDAAEFTCRAQNPLGSQQVYLNVSLQSKATSGVTQGVVGGAGATALVFLSFCVIFVVVRSCRKKSARPAAGVGDTGIEDANAVRGSASQGPLTEPWAEDSPPDQPPPASARSSVGEGELQYASLSFQMVKPWDSRGQEATDTEYSEIKIHR",glycan array binding signal (z-score),[1],0.105
same,glycan array binding signal (z-score),[2],0.17
same,glycan array binding signal (z-score),[3],-0.234
same,glycan array binding signal (z-score),[4],0.381
same,glycan array binding signal (z-score),[5],-0.092
same,glycan array binding signal (z-score),[6],-0.105
same,glycan array binding signal (z-score),[7],-0.106
same,glycan array binding signal (z-score),[8],-0.246
same,glycan array binding signal (z-score),[9],-0.223
same,glycan array binding signal (z-score),[10],-0.219
same,glycan array binding signal (z-score),[11],-0.075
same,glycan array binding signal (z-score),[12],-0.238
same,glycan array binding signal (z-score),[13],-0.042
same,glycan array binding signal (z-score),[14],-0.262
same,glycan array binding signal (z-score),[15],-0.238
same,glycan array binding signal (z-score),[16],0.878
same,glycan array binding signal (z-score),[17],-0.136
same,glycan array binding signal (z-score),[18],0.248
same,glycan array binding signal (z-score),[19],0.086
same,glycan array binding signal (z-score),[20],-0.128
same,glycan array binding signal (z-score),[21],0.157
same,glycan array binding signal (z-score),[22],0.122
same,glycan array binding signal (z-score),[23],0.355
same,glycan array binding signal (z-score),[24],-0.081
same,glycan array binding signal (z-score),[25],-0.067
same,glycan array binding signal (z-score),[26],1.58
same,glycan array binding signal (z-score),Neu5Ac(a2-6)GalNAc,-0.041
same,glycan array binding signal (z-score),[27],0.195
same,glycan array binding signal (z-score),[28],0.164
same,glycan array binding signal (z-score),[29],-0.046
same,glycan array binding signal (z-score),[30],-0.29
